In the supplement of paper PMC3656093:
± gives the standard deviation of the averaged measurements. Whole data set: some 1,900 compounds, median “CD40L-induced NF-kB luciferase activity, plate-corrected, relative to DMSO (0) and IKK inhibitor VII (-100) controls” near 0.032, cut for the lowest 2% near -26. The list shows a part of the results.

system: BL2-NFkB-Luc; test: CD40L-induced NF-kB luciferase activity, plate-corrected, relative to DMSO (0) and IKK inhibitor VII (-100) controls (% normalized activity); higher = more NF-kB reporter activity (less inhibition); conditions: 9.4 µM; stimulus: tCD40L 64 ng/ml; 4.5 h
Method: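 BL2 B cells with a stable NF-kB response-element luciferase reporter (BL2-NFkB-Luc), 384-well. Cells were pre-incubated with compound at 9.4 uM for 1 h at 37 C, then stimulated with 64 ng/ml trimerized CD40L for 4.5 h; luciferase was read with Steady-Glo. Signal was normalised per plate in Genedata (median DMSO neutral control = 0, median IKK inhibitor VII at 50 uM = -100) with Assay Median plate-pattern correction; duplicate plates.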

SMILES | CD40L-induced NF-kB luciferase activity
COc1cc2cc(C(=O)O)n(C)c2c(OC)c1OC | 2.66 ± 1.5
CCOC(=O)C(NC(C)=O)C(O)c1ccc([N+](=O)[O-])cc1 (stereo unspecified) | -1.16 ± 2.7
Nc1ccc2cn[nH]c2c1 | -3.23 ± 2.4
CCN(CC)C(=S)SSC(=S)N(CC)CC | 10.1 ± 1.5
COCCOC(=O)C1=C(N)OC2=C(C(=O)CCC2)C1c1cccnc1 (stereo unspecified) | -3.03 ± 0.28
Cc1oc(C=NNC(=O)CC2(C)OCCO2)cc1Br | -0.742 ± 2.4
c1ccc(-c2ccccn2)nc1 | -0.389 ± 1.8
CC(C)Oc1ccc(C2CC(=O)N(c3ccc(C(=O)O)cc3)C2=O)cc1 (stereo unspecified) | -3.94 ± 6.9
COc1ccc(NC(=S)NCCc2c[nH]c3ccccc23)cc1 | 1.9 ± 1.1
O=C(NCCNc1ccc(Cl)cc1[N+](=O)[O-])c1cccnc1 | 5.16 ± 4.4
C[C@]12C[C@H](O)[C@H]3[C@@H](CCC4=CC(=O)CC[C@@]43C)[C@@H]1CC[C@@H]2C(=O)CO | -19.6 ± 8.2
O=C(NC(Nc1ccccn1)C(Cl)(Cl)Cl)c1ccccc1 (stereo unspecified) | -4.69 ± 1.9
O=C(O)c1cc2cc(Cl)cc(Cl)c2oc1=O | -0.642 ± 0.68
Oc1ccc(COCc2ccccc2)c2cccnc12 | 31.8 ± 3.1
COc1cc(CNCc2ccc(OC)c(OC)c2OC)cc(OC)c1 | -9.63 ± 3.3
Nc1cccc(C(=O)O)c1 | 0.601 ± 11
CCN1C(=O)C(CC(=O)Nc2ccc(F)cc2)N(Cc2ccco2)C1=S (stereo unspecified) | -6.1 ± 1.4
COc1ccc2[nH]cc(C(=O)CCl)c2c1 | -18.7 ± 2.5
CCC(=O)Oc1ccc(/C(CC)=C(\CC)c2ccc(OC(=O)CC)cc2)cc1 | -2.86 ± 2

SMILES | CD40L-induced NF-kB luciferase activity
COc1ccc(CCNC(=O)c2ccc(Cl)cc2)cc1OC | 2.7 ± 6.7
COc1ccc2c(c1OC)C(=O)OC2C1c2c(cc3c(c2OC)OCO3)CCN1C (stereo unspecified) | 4.43 ± 1
COc1ccc(C2N3CC4(C)CN2CC(C)(C3)C4)cc1OC (stereo unspecified) | -1.8 ± 1.9
O=C(NCc1ccc(N2CCCC2=O)cc1)c1cccc(Cl)c1 | 0.303 ± 1.9
Cc1ccc2c(c1)c1c3n2CCCNC3CCC1 (stereo unspecified) | -0.763 ± 1.7
C[C@]12CC[C@@H]3c4ccc(O)cc4CC[C@H]3[C@@H]1CC[C@@H]2OC(=O)CCC(=O)O | 4.26 ± 1.1
CC(=O)N(CCC(Cc1ccccc1)c1ccco1)Cc1ccco1 (stereo unspecified) | -10.3 ± 3.9
Nc1c(C(=O)c2ccccc2)oc2ccccc12 | 17.3 ± 8.5
COc1ccc(N2C(=O)[C@@H]3[C@H](C2=O)[C@H]2c4ccccc4C=CN2[C@@H]3C(C)=O)cc1 | -2.09 ± 0.85
Cc1cc(C(C)(C)C)c(O)c(C)c1CC1=NCCN1 | -6.39 ± 2.2
CN(C)CCCN1c2ccccc2Sc2ccccc21 | 1.36 ± 1.7
Cn1c(SCC(=O)c2ccccc2)nnc1-c1ccncc1 | 11.7 ± 0.42
C[C@]12CCC(=O)C=C1[C@H](O)C[C@@H]1[C@@H]2[C@@H](O)C[C@@]2(C)[C@H]1CC[C@]2(O)C(=O)CO | -8.7 ± 4.6
CCc1cc2c(=O)c(-c3ccc4c(c3)OCCO4)coc2c(CN2CCCCC2C)c1O (stereo unspecified) | 17.3 ± 6.1
Cc1ccc(Cl)c(OCCCN(C)Cc2ccccc2)c1 | -1.15 ± 2.5
CC(CCc1ccccc1)NCC(O)c1ccc(O)c(C(N)=O)c1 (stereo unspecified) | 5.01 ± 0.12
O=C(O)c1cccnc1Nc1cccc(C(F)(F)F)c1 | -2.71 ± 10
COc1ccc(C(Cl)=C(c2ccc(OC)cc2)c2ccc(OC)cc2)cc1 | 5.26 ± 4.2
Cc1oncc1C(=O)Nc1ccc(C(F)(F)F)cc1 | 4.6 ± 2.1

SMILES | CD40L-induced NF-kB luciferase activity
CC[N+](C)(C)Cc1ccccc1Br | -1.11 ± 9
O=C(NCc1ccccc1Cl)NC(=O)c1ccccc1 | 7.34 ± 5.7
CC1(C)Oc2ccc(C#N)cc2[C@@H](N2CCCC2=O)[C@@H]1O | -6.01 ± 11
CCN1C(=O)C(CC(=O)Nc2ccc(OC)cc2)N(CCc2ccc(F)cc2)C1=S (stereo unspecified) | -1.13 ± 4.2
c1ccc2c(c1)CCOC2CNCCCN1CCCCC1 (stereo unspecified) | -0.411 ± 1.1
OCCC1CN(Cc2nc(-c3ccccc3)cs2)CCN1Cc1ccc(F)cc1 (stereo unspecified) | -9.83 ± 5.8
N/C(Cc1ccc(Cl)cc1Cl)=N\OC(=O)c1ccc(Br)o1 | -0.0921 ± 1.1
CN(Cc1c(C(=O)N(C)Cc2ccccc2)nc2ccccn12)CC1Cc2ccccc2O1 (stereo unspecified) | -6.37 ± 6.3
[N-]=[N+]=N[C@@H]1C[C@H](n2ccc(=O)[nH]c2=O)O[C@@H]1CO | 2.68 ± 1.4
Nc1nc(Cl)nc2c1ncn2[C@H]1C[C@H](O)[C@@H](CO)O1 | 0.0575 ± 1.9
O=C(O)[C@@H](O)c1ccccc1 | -1.47 ± 0.027
CC(=O)c1c(N)nc2n(c1=O)CCCCC2 | -0.416 ± 0.94
CC/C(=C1/C(=O)CC(C)(C)C(C(=O)OC)C1=O)N1CCCC1 (stereo unspecified) | -2.64 ± 9.9
CCN(CC)CCN1C(=O)C(=O)/C(=C(/O)c2c(C)[nH]c(C(=O)OC)c2C)C1c1cccnc1 (stereo unspecified) | 0.413 ± 0.55
N=C(N)c1ccc(OCCCCCOc2ccc(C(=N)N)cc2)cc1 | -3.31 ± 2.2
CC(=O)C1=C(O)C(=O)N(CC(=O)O)C1c1ccccc1Cl (stereo unspecified) | 3.2 ± 3.2
CCCCC(=O)O[C@H]1CC[C@H]2[C@@H]3CCc4cc(O)ccc4[C@H]3CC[C@]12C | 2.5 ± 0.8
COc1ccccc1C(=O)Nc1cc2cc(Br)ccc2oc1=O | 9.74 ± 0.74
